The campaign covered roughly 410,000 compounds. About 7,200 (1.8%) were called active. This list was built around the results that the source calls inconclusive (neither active nor inactive); the mix of calls is not that of the screen. Calls come from the whole dose curve; as a rule, active = well fitted activation curve with a large enough effect; inconclusive = small, poorly fitted or top-dose-only effect, or another doubt; inactive = no such curve, though single readings can be large or run the other way. Potencies of inconclusive entries are left out as doubtful fits.
Test: qHTS of TDP-43 Inhibitors; note: nearly all actives have a fitted effect of over 50% in size; for growth rescue (activation): % of control where 0% means no effect
Conditions: TDP-43 expressing yeast growth rescue, BacTiter-Glo, 24 h; growth rescue (activation): at 46.1 µM (top of the series) unless noted
In short: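 In this qHTS, compounds that restore growth of yeast expressing TDP-43 appear as activators. Cells (OD600=0.02, galactose medium, raffinose-pregrown) are incubated with compound 24 hr at 30 deg C and growth is quantified by BacTiter-Glo.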
For `CCCn1cc(SCC(=O)Nc2cc(C)on2)c2ccccc21`, the Potency was inconclusive [activator, partial curve].
For `COc1ccc(NC(=S)Nc2ncccc2C)c(OC)c1`, the Potency was inconclusive [activator, single point].
In the case of `O=S(=O)(c1ccc(Cl)cc1)c1nc(-c2cccs2)oc1SCc1ccccc1F`, the “growth rescue (activation)” value is reported as inactive: 18.2%.
With `Cc1nc2ccccc2n1/N=C/c1ccc([N+](=O)[O-])s1` the Potency was inconclusive [activator, full curve, poor fit].
For `COC(=O)c1cn(C(=O)c2ccccc2)c2ccccc12`, the Potency was inconclusive [activator, partial curve].
With `Cc1ccc(C(=O)COC(=O)c2n[nH]c(=O)c3ccccc23)cc1` the Potency was inconclusive [activator, partial curve].
In the case of `CCOC(=O)c1c(S(=O)(=O)N2CCCC(C(=O)N3CCN(c4cc(C)ccc4C)CC3)C2)c(C)n(C)c1C` (configuration not stated), the Potency is reported as inconclusive [activator, full curve, poor fit].
In the case of `CC1(C)CC2(CCO1)N1CC3(C)CN2CC(C)(C1)C3=O` (configuration not stated), the Potency is reported as active: 3.16 µM.
For `O=C(C1CCC1)N1CCN(c2ccc(Cl)cc2)CC1`, the Potency was inconclusive [activator, partial curve].
In the case of `COc1ccc(OCCn2cc(C=O)c3ccccc32)cc1`, the Potency is reported as active: 10 µM.
In the case of `CCCCOc1ccc(C(=O)Nc2cccc(C)n2)cc1`, the Potency is reported as active: 2.82 µM.
In the case of `S=C(NCCc1ccccc1)N1CCCC1`, the Potency is reported as inconclusive [activator, partial curve].
For `Cc1ccc(NC(=O)COC(=O)c2ccc3c(=O)n4c(nc3c2)CCC4)c(Br)c1`, the Potency was inconclusive [activator, full curve, poor fit].
For `CN(Cc1ccc(Cl)s1)C(=O)CCl`, the Potency was active: 10 µM.
With `COc1ccc(-c2ccc(NS(=O)(=O)c3cc(C)c(C)cc3C)cc2)nn1` the Potency was active: 17.8 µM.
In the case of `Cc1c(-c2nnnn2-c2ccc(F)cc2)cnc2cc3c(cc12)OCO3`, the Potency is reported as inconclusive [activator, single point].
In the case of `Cc1cc(C)n(-c2ccn(Cc3ccc(Cl)cc3Cl)c(=O)n2)n1`, the Potency is reported as inconclusive [activator, single point].
With `CCOC(=O)c1sc2nccc(N(C)C)c2c1N=CNOCc1ccccc1` the Potency was inconclusive [activator, single point].
For `COc1cc(F)c(C2=CC(=O)CC(C)(C)C2)cc1F`, the Potency was inconclusive [activator, partial curve].
In the case of `CC(=O)n1c2c(c3ccccc31)OC(N)=C(C#N)C2c1ccc(C(C)C)cc1` (configuration not stated), the “growth rescue (activation)” value is reported as inactive: 0.757%.
With `Cc1ccc(C2=NC(C)(C)N=C2SCC(=O)Nc2ccc(Cl)cc2)cc1` the Potency was active: 35.5 µM.
In the case of `CC1(C)Cc2c(sc(NC(=O)c3ccco3)c2C#N)CO1`, the Potency is reported as inconclusive [activator, single point].
For `Oc1ccccc1-c1nc2cnccn2c1Nc1ccc(Cl)cc1`, the growth rescue (activation) was inconclusive: -70.9% [activator].
In the case of `CCOC(=O)c1c(C)[nH]c(C(=O)OCC(=O)Nc2cccnc2Cl)c1C`, the Potency is reported as inconclusive [activator, partial curve, poor fit].
With `COc1ccc(/C=C/C(=O)NCC(=O)N=Nc2c(O)[nH]c3ccc([N+](=O)[O-])cc23)cc1` the “growth rescue (activation)” value was inactive: -2.98%.
With `O=C(Nc1ccccc1C(=O)NCc1ccccc1)c1ccco1` the Potency was inconclusive [activator, single point].
In the case of `CCCn1ccc2c(OCC(=O)Nc3ccccc3C(=O)OCC)cccc2c1=O`, the Potency is reported as inconclusive [activator, full curve].
For `CC1CCc2nc(NC(=O)C3COc4ccccc4O3)sc2C1` (configuration not stated), the Potency was active: 35.5 µM.
With `CCc1ccc(-c2n[nH]nc2C2=CC(=O)C[C@H](c3ccc(F)cc3)C2)cc1` the Potency was inconclusive [activator, partial curve].
For `Cc1cc(SCC#N)n2nc(C)c(-c3ccccc3)c2n1`, the Potency was inconclusive [activator, partial curve].
For `COc1ccc(-c2cc(C(=O)Nc3ccc(C)c(C)c3)no2)cc1`, the “growth rescue (activation)” value was inactive: 10.5%.
With `COc1ccc(CCNC(=O)c2cc(Nc3ccccc3)nc3ccccc23)cc1OC` the “growth rescue (activation)” value was inactive: 0.615%.
With `CNC(=O)NC(=O)COC(=O)CCCSc1nc2ccccc2s1` the Potency was inconclusive [activator, single point].
For `O=S(=O)(NCCc1csc(-c2cccc(F)c2)n1)c1cc(F)ccc1F`, the Potency was active: 2.51 µM.
For `O=CNc1cc(-c2cccc(F)c2)cn2c(-c3ccc(F)cc3)cnc12`, the Potency was active: 17.8 µM.
In the case of `O=C(O)CC/C(=N\Nc1ccc([N+](=O)[O-])cc1)c1ccccc1`, the Potency is reported as inconclusive [activator, single point].
In the case of `CCCCCCOc1ccc(C(=O)O)cc1C#N`, the Potency is reported as active: 22.4 µM.
With `O=c1cc(O)c2ccc(O)cc2o1` the Potency was active: 14.1 µM.
In the case of `NC(=O)c1ccc(NC(=O)COC(=O)CCCOc2ccccc2)cc1`, the Potency is reported as inconclusive [activator, full curve, poor fit].
For `O=S(=O)(NC1CCCCC1Oc1ccccc1)c1ccc(Cl)cc1` (configuration not stated), the Potency was inconclusive [activator, single point].
For `C/C(=N\N=C1\NC(=O)CS1)c1cccs1`, the Potency was inconclusive [activator, full curve, poor fit].
With `O=C(c1ccc(Sc2cccc(Cl)c2)c([N+](=O)[O-])c1)N1CCN(c2ccccn2)CC1` the Potency was active: 22.4 µM.
For `O=C(Nc1ccc(Cl)cc1)C1CCCN(c2cnccn2)C1` (configuration not stated), the Potency was inconclusive [activator, single point].
In the case of `CCc1ccc(/C=N/NC(=O)c2cc(C)on2)s1`, the Potency is reported as inconclusive [activator, partial curve].
In the case of `Nc1nc(Nc2ccccc2)sc1C(=O)c1ccccc1`, the Potency is reported as inconclusive [activator, single point].
For `Cc1nnc(SCc2cc(=O)c3cc(F)ccc3[nH]2)n1C`, the “growth rescue (activation)” value was inactive: 13.1%.
For `Cc1ccc(-c2cc(-c3ccccc3)c3c(N)c(S(C)(=O)=O)sc3n2)cc1`, the Potency was inconclusive [activator, partial curve].
For `C=CCOc1ccc(C=CC(=O)c2c(O)c(OC)c(OC)c(OC)c2OC)cc1`, the Potency was active: 22.4 µM.
For `COc1ccc(/C(C)=N/NC(=S)NCc2ccco2)cc1`, the Potency was inconclusive [activator, full curve].
For `COc1ccc(Cl)cc1NC(=O)CN(C)C(=O)C1COc2ccccc2O1` (configuration not stated), the Potency was inconclusive [activator, single point].
With `CN(C)c1ccnc(Oc2ccc(Cl)cc2)c1C#N` the Potency was inconclusive [activator, single point].
For `COC(=O)c1ccc2nc(-c3ccc(C)cc3)c(Cc3ccccc3OC)n2c1`, the “growth rescue (activation)” value was inactive: -7.66%.
For `Cc1ccc(C)c(N2CCN(S(=O)(=O)c3cc(C(=O)Nc4ccccc4C(F)(F)F)ccc3F)CC2)c1`, the Potency was inconclusive [activator, partial curve, poor fit].
For `COc1ccccc1C/C(N)=N/OC(=O)/C=C/c1ccccc1`, the growth rescue (activation) was inconclusive: -89.3% [activator].
For `COc1nc2ccccc2nc1N1CCN(Cc2ccc3c(c2)OCO3)CC1`, the Potency was active: 14.1 µM.
For `CCOC(=O)c1cc(CC)sc1NC(=O)COC(=O)c1cnccn1`, the growth rescue (activation) was inconclusive: 36.2% [activator].
For `Nc1cc2c(cc1Cl)-c1ccc([N+](=O)[O-])cc1C2=NO`, the Potency was inconclusive [activator, partial curve].
With `Cc1c(C(=O)C(=O)N2CC=C(c3ccccc3)CC2)c2ccccc2n1C` the Potency was inconclusive [activator, full curve].
For `Cc1ccc(-c2nnc(SCC(=O)NCc3ccccc3)o2)cc1`, the Potency was inconclusive [activator, partial curve].
With `NC(=O)COC(=O)c1ccc(-c2ccccc2)cc1` the Potency was inconclusive [activator, partial curve].
In the case of `CCOc1ccc(-c2cc(C(=O)O)c3ccccc3n2)cc1`, the “growth rescue (activation)” value is reported as inactive: -8.38%.
With `COc1ccc(CNC(=O)COC(=O)/C=C/c2ccco2)cc1` the Potency was inconclusive [activator, partial curve].
In the case of `O=c1c2ccccc2nnn1Cc1ccc(Br)cc1`, the Potency is reported as inconclusive [activator, partial curve].
In the case of `CC1=C(c2ccc(C)c(C)c2)S(=O)(=O)N=C1N1CCC(C(=O)NCc2ccc(N(C)C)cc2)CC1`, the “growth rescue (activation)” value is reported as inactive: 18%.
In the case of `COc1ccccc1NC(=O)N1CCN(c2nnc(C)c3c(C)n(-c4ccccc4)nc23)CC1`, the “growth rescue (activation)” value is reported as inactive: -9.75%.
For `C=C(C)CSc1cc(C)nc2c(-c3ccccc3)c(C)nn12`, the Potency was inconclusive [activator, partial curve].
With `Cc1ccc(C(=O)Nc2ccc(N3CCN(C(=O)c4cccs4)CC3)cc2)c(Cl)c1` the Potency was inconclusive [activator, partial curve].
In the case of `O=C1C=C(c2cccs2)C[C@H](c2ccccc2)[C@H]1n1nnc([N+](=O)[O-])n1`, the growth rescue (activation) is reported as inconclusive: -67.1% [activator].
With `OCC1CCCN(c2ncnc3scc(-c4ccccc4)c23)C1` (configuration not stated) the Potency was inconclusive [activator, full curve, poor fit].
For `COc1cccc(C(O)c2nc(-c3cncnc3)cs2)c1` (configuration not stated), the “growth rescue (activation)” value was inactive: 22.5%.
For `O=C1/C(=C\c2ccc([N+](=O)[O-])cc2)CCc2ccccc21`, the Potency was inconclusive [activator, partial curve].
In the case of `Cc1ccc(NC(=O)Cn2nc(C)c3nn(-c4ccc(Cl)cc4)c(C)c3c2=O)cc1F`, the “growth rescue (activation)” value is reported as inactive: -18.2%.

Source: PubChem BioAssay AID652104 (National Center for Advancing Translational Sciences (NCATS), 2013)
Potency is the fitted concentration of half-maximal effect; tags give direction and shape of the fitted curve.
